Measurements as given in PubChem BioAssay (NCI).
Where “and” joins values, the source holds several entries; their conditions need not be identical. Equal values may be shown once.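 Compound exposure: 48 hours, 5 concentrations, 96-well plates. At the GI50, growth is halved. At the TGI there is no net growth.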

Test system: NCI-H322M lung
Test: NCI anticancer screen, dose series, 48 h

Row | SMILES | TGI [µM] | GI50
1 | COC(=O)c1c(C)c2c(c(C)c1C(=O)OC)-c1c(C)ccc3ccc(C)c-2c13 | > 100 | –
2 | CCn1c(=O)c(C(=O)O)c(Cl)c2cc3c(cc21)OCO3 | > 100 | –
3 | O=C(Nc1ccc(Cl)cc1C(=O)O)c1ccc([N+](=O)[O-])cc1 | 54 | –
4 | COC(=O)c1cc(O)c(O)c(O)c1-c1c(O)c(O)c(O)c(SC[C@H](NC(=O)OCc2ccccc2)C(=O)OCc2ccccc2)c1C(=O)OC | 92.4 | –
5 | CC(C)COC1Sc2ccccc2S1 | 31.3 | –
6 | CC[C@H](C)[C@H](NC(=O)[C@H]1CCCCN1C)C(=O)N(C)[C@H](C[C@@H](OC(C)=O)c1cccc(C(=O)N[C@@H](Cc2ccccc2)C[C@H](C)C(=O)O)n1)C(C)C | > 25 | 0.00486 µM and 0.0025 µM
7 | CC1=CP(=O)(c2ccccc2)C=C(C)C1=C(Cl)Cl (configuration not stated) | 18.6 | –
8 | C=C1C(=O)O[C@H]2[C@H]1CC/C(COC(=O)/C=C\C(=O)NCc1ccc(Cn3c(=O)sn(CCI)c3=O)cc1)=C\CC[C@@]1(C)O[C@@H]21 | 27.7 | 14.5 µM
9 | CC1=NN2C(c3ccc([N+](=O)[O-])cc3)=CSC2=NC(C)(C)C1 | > 100 | –
10 | CCOC(=O)CCC(NC(=O)c1ccc(Oc2nc3c(N)cc(C(F)(F)F)cc3nc2-c2ccccc2)cc1)C(=O)OCC (configuration not stated) | > 100 | –
11 | C[C@]12CC[C@H](O)CC1=CC[C@@H]1C2CC[C@]2(C)C(=O)NC(=O)CC12 (some centres not stated) | > 100 | –
12 | CC(=O)c1ccccc1NC(=O)C(=O)C(C(=O)c1ccccc1-c1ccccc1)C1OC(=O)c2ccccc21 (configuration not stated) | 79.5 | –
13 | O=C(COc1ccccc1)N(C(=O)N1CCN(c2ccccc2)CC1)S(=O)(=O)c1ccccc1 | > 100 | –
14 | CCCCSCC(NC(=O)/C=C/c1c(C)[nH]c(=O)[nH]c1=O)C(=O)OC (configuration not stated) | 269 | –
15 | CCC(C)C1=C(O)[N+]2([O-])Oc3ccc(C4=C(O)C(=O)C(c5ccc(O)cc5)=C(O)C4=O)cc3OC2(C(C)CC)C(=O)N1O (configuration not stated) | > 100 | 37.8 µM
16 | CCOC(=N)CC(=O)Nc1ccccc1 | > 46.4 | –
17 | CCN(CC)c1ccc(-c2cc(-c3cc(OC)c(OC)c(OC)c3)nc(N3CCC(O)CC3)c2C#N)cc1 | > 81.3 | 1.11 µM
18 | CN(C)CCCNC(=O)c1cc(NS(=O)(=O)c2ccc3c(c2)C(=O)c2ccccc2C3=O)cn1C | 41.9 | –
19 | COc1ccc(-c2cc(-c3ccc(Cl)cc3)nc(NCCCCNc3ccnc4cc(Cl)ccc34)n2)cc1 | 31.3 | 15.1 µM
20 | COC1C=COC2(C)Oc3c(C)c(O)c4c(O)c(c(C5SCCS5)c(O)c4c3C2=O)NC(=O)/C(C)=C\C=CC(C)C(O)C(C)C(O)C(C)C(OC(C)=O)C1C (configuration not stated) | 36.6 | –
21 | ClCC[N-]CC[N-]CCCl.ClCC[N-]CC[N-]CCCl.[O-][Cl+3]([O-])([O-])O.[Zn+2] | > 100 | –
22 | c1ccc2c(c1)Cc1c(Cc3csc4ccccc34)ccc3cccc-2c13 | > 100 | –
23 | O=C1C=C2CCCC2C(C(=O)O)(C(=O)O)C1 (configuration not stated) | > 100 | –

Row | SMILES | TGI [µM] | GI50
24 | CCN(CC)CCN1c2nc3ccccc3cc2Sc2cc3ccccc3nc21 | 15 | 3.86 µM
25 | Fc1ccc(-c2nn3ccccc3c2-c2ccncc2)cc1 | > 25 | > 25 µM
26 | C#C[C@@]1(O)[C@@H](CO)O[C@@H](n2cc(C(F)(F)F)c3c(N)ncnc32)[C@@H]1O | 8.01 | 1.45 µM
27 | C[n+]1c2ccccc2c(CNCC(=O)O)c2ccccc21 | 23 | –
28 | COc1ccccc1[As]=[As]c1ccccc1OC (configuration not stated) | 0.278 | 0.132 µM
29 | CCOC(=O)/C(C(=S)NCc1ccccc1)=C(/N)N1CCCC1 | > 100 | –
30 | Oc1ccc(C(O)(c2ccccc2)c2ccccc2)c2ccccc12 | 6.86 | –
31 | CN(C)c1ccc(/C=N/c2nc3cc4sc(/N=C/c5ccc(N(C)C)cc5)nc4cc3s2)cc1 | > 100 | –
32 | CC1(C)c2ccccc2N2O[C@@H]3C(=O)N(c4ccccc4)C(=O)[C@@H]3C21c1ccccc1 (some centres not stated) | > 100 | –
33 | C=CCCCN1CCCC(C)C1=S (configuration not stated) | > 100 | –
34 | CC1(C)C(=O)C(C)(C)C1=NNC(N)=S | > 100 | –
35 | CC(=O)Oc1c2ccsc2c(OC(C)=O)c2ccsc12 | 2.37 | –
36 | COc1ccc2c(c1)CCc1cc(OC)ccc1/[N+]([O-])=[N+]\2[O-] | > 56.5 | –
37 | Clc1cccc(CNc2c3ccccc3nc3ccccc23)c1 | 6.04 | 1.93 µM
38 | CC(C)OC(=O)[C@H]1ON2O[C@H](O[C@@H]3CCCC[C@H]3c3ccccc3)C([Si](C)(C)c3ccccc3)[C@H]3OC(=O)[C@@H]1C32 (some centres not stated) | > 100 | –
39 | COc1cc2c(oc(=O)c3cc4cc([Si](C)(C)C)oc4c(OC)c32)c2cccc(O)c12 | > 100 | –
40 | CO[C@]12S[C@@H]3CCCC[C@@]31C(C)(C)C(=O)N2c1ccccc1 | > 100 | –
41 | O=C1CCC2c3ccccc3NCN12 (configuration not stated) | > 100 | –
42 | CN1C(=O)C(C(=O)Nc2ccccn2)C2C[C@@]1(C)Oc1ccccc12 (some centres not stated) | > 100 | –
43 | CNC(=O)c1c(F)cccc1Nc1nc(Nc2cc3c(cc2OC)CCN3C(=O)CN(C)C)nc2[nH]ccc12 | 26.2 | 6.73 µM
44 | Cc1cn(Cc2cccc(C3=NCCCN3)c2)c(=O)n(Cc2cccc(C3=NCCCN3)c2)c1=O | > 100 | –
45 | OC1CCCC2CCC[N-]C12.OC1CCCC2CCC[N-]C12.[O]=[V][OH] (configuration not stated) | > 100 | 4.14 µM
46 | Cn1c2ccccc2c2ccc3c(c21)C(=O)C(c1ccccc1)=CC3=O | > 100 | –

Row | SMILES | TGI [µM] | GI50
47 | CN(C)Cc1ccc(NC(=O)c2cncc(C#Cc3cnc(N)c4ncccc34)c2)cc1F | 4.57 | 2.22 µM
48 | CC(=O)/C(Br)=C/c1ccc(Br)o1 | 32.8 | 16.9 µM
49 | CC1(C)Cc2c(oc3ncnc(N)c23)CS1 | > 100 | –
50 | O=C(Nc1cc(Cl)ccc1O)c1cccc(Nc2ccnc(C(F)(F)F)c2)c1 | 32.8 | 4.27 µM
51 | c1ccc(-c2c(-c3cccs3)[nH]c(-c3cccs3)c2-c2ccccn2)nc1 | > 100 | –
52 | N=C(N)c1ccc(-c2ccc(-c3ccc4ccccc4c3)s2)s1 | 3.73 | 1.64 µM
53 | CCOC(=O)C1C(c2ccc(OC)cc2)c2c([nH][nH]c2=O)CC1(C)O (configuration not stated) | > 100 | –
54 | O=C1C=C(OCC=C(C(F)(F)F)C(F)(F)F)c2ccccc2C1=O | 6.34 | 2.65 µM
55 | C/C(=N\Nc1nc2ccccc2[nH]1)c1cnccn1 | > 74.8 | –
56 | NC(=O)c1ccc([N+](=O)[O-])cc1 | > 100 | –
57 | CC(C)(C)[C@H]1CO[C@]2(c3ccccc3)[C@@H]3C[C@@H]3C(=O)N12 | > 100 | –
58 | N#Cc1nc(C#N)c(Sc2ccccc2)c(Sc2ccccc2)c1Sc1ccccc1 | 21.3 | 4.81 µM
59 | NC(Cc1c[nH]c2ccc([N+](=O)[O-])cc12)C(=O)O (configuration not stated) | > 100 | –
60 | CC(=O)C1C(=O)C(=O)N(c2ccc([N+](=O)[O-])cc2)C1=O (configuration not stated) | > 100 | –
61 | Cc1ccc(-c2nc(-c3nccc4ccccc34)oc2-c2ccccc2)cc1 | 65.4 | –
62 | CCC1(CC)N=C(C(F)(F)F)c2cc(C(=O)C(F)(F)F)c3ccccc3c2N1 | > 100 | –
63 | COc1ccc(-c2oc3cc(OC(C)=O)cc(OC(C)=O)c3c(=O)c2OC)cc1 | 73.1 | –
64 | CC(C)(C)OC(=O)[C@@H]1ON2O[C@H](OC3CCCC3(c3ccccc3)c3ccccc3)C[C@H]3OC(=O)[C@@H]1[C@H]32 (some centres not stated) | > 100 | –
65 | Cn1c(=O)cc2[nH]c3ccccc3n2c1=O | > 100 | –
66 | O=C(CCC(=O)Nc1cccc(C(F)(F)F)c1)CC(=O)c1ccc2ccccc2c1 | > 100 | –
67 | COc1ccc(N2C(=O)/C(=C\c3ccccc3)SC2c2cc(OC)c(OC)c(OC)c2)cc1 (configuration not stated) | > 100 | –
68 | CCCCCCCCCCCCCCCC(=O)OCCOCCOCCOCCOCCOC(=O)CCCCCCCCCCCCCCC | > 100 | –
69 | N#CC1(C#N)C=CC(=C2OCC3CCCN23)C=C1 (configuration not stated) | > 100 | –
